Experimental data published in patent US20060194762A1, “Composition comprising an epothilone and methods for producing a composition comprising an epothilone” (priority 2004, published 2006).
≈ marks a conversion by molar mass, not a printed value. Where “and” joins values, the source holds several entries; their conditions need not be identical. Identical values can stand only once. Like-named read-outs stand apart in the source and are kept apart here.

What was measured:
[1] = system: Patients with histologically confirmed advanced solid tumors
[2] = Degradation rate constant of Epothilone* in reconstituted aqueous hydroxypropyl-beta-cyclodextrin solutions at adjusted pH (HPLC); assay type: physicochemical; conditions: aqueous solution containing hydroxypropyl-beta-cyclodextrin
Experimental: Stability data of Epothilone* (1S,3S,7S,10R,11S,12S,16R)-7,11-dihydroxy-3-(2-methyl-benzothiazol-5-yl)-10-(prop-2-en-1-yl)-8,8,12,16-tetramethyl-4,17-dioxabicyclo[14.1.0]heptadecane-5,9-dione) in aqueous solutions containing hydroxypropyl-beta-cyclodextrin.
Freeze-dried preparations as shown in Example 1 were reconstituted with water for injection and the pH was then adjusted to pH values between 6.1 and 13.6 using HCl or NaOH. The solutions were left at room temperature or 40° C. and assay and purity were measured at intervals using HPLC.
The degradation rate constant (K) of the Epothilone* decreases as the pH value approaches the neutral pH. The degradation rate is at minimum at pH 7.

[3] = Solubility of epothilone in water under saturation conditions; assay type: physicochemical
Description: Epothilone is usually not very stable in solution. Thus the compound must be protected from hydrolysis. In addition the stability is dependent from the pH of the solution. […] The low stability of epothilone is shown in example 4. The degradation is proportional to [K×concentration].

[4] = Phase solubility diagram technique: apparent equilibrium stability constant of the complex with hydroxypropyl-beta-cyclodextrin; assay type: physicochemical; conditions: 25° C., aqueous solution
Description: Determination of the apparent equilibrium stability constant of the complex between Epothilone*(1S,3S,7S,10R,11S,12S,16R)-7,11-dihydroxy-3-(2-methylbenzothiazol-5-yl)-10-(prop-2-en-1-yl)-8,8,12,16-tetramethyl-4,17-dioxabicyclo[14,1,0]heptadecane-5,9-dione) and hydroxypropyl-beta-cyclodextrin on aqueous solution.
K′ leads to the assumption that if at all a complex was formed it is not sufficiently stable.

## C=CC[C@H]1C(=O)C(C)(C)[C@@H](O)CC(=O)O[C@H](c2ccc3sc(C)nc3c2)C[C@@H]2O[C@]2(C)CCC[C@H](C)[C@@H]1O [Epothilone*, (1S,3S,7S,10R,11S,12S,16R)-7,11-dihydroxy-3-(2-methyl-benzothiazol-5-yl)-10-(prop-2-en-1-yl)-8,8,12,16-tetramethyl-4,17-dioxabicyclo[14.1.0]heptadecane-5,9-dione]
[1]; 16 mg/m^2, 30 minutes intravenous infusion every 3 weeks
  Dose limiting toxicity observed: CTC Grade 3 peripheral neuropathy
[1]; 29 mg/m^2, 30 minutes intravenous infusion every 3 weeks
  Dose limiting toxicity observed: CTC Grade 4 ataxia
[2]
  pH at which the degradation rate is at minimum: 7
[3]
  solubility: ~12 µg/mL (≈ 22.1 µM)
[4]; hydroxypropyl-beta-cyclodextrin
  stability constant K′ of an assumed 1:1 complex: 484.5 M⁻¹
[4]; water, thermodynamic from solid, phase solubility diagram, read-out: solubility So
  solubility: 43 µM and 23 µg/mL
